Measurements from PubChem BioAssay AID493208 (National Center for Advancing Translational Sciences (NCATS), 2011).
About 340 (0.77%) of roughly 44,000 compounds were called active. Roughly 5% stayed inconclusive and do not appear here. The call rests on the fitted dose curve; in most records, active means well fitted inhibition curve with a large enough effect; inconclusive means small, poorly fitted or top-dose-only effect; inactive means flat fitted curve, though single readings scatter. Some of the results follow.

Assay: Acumen qHTS Assay for Inhibitors of the mTORC1 Signaling Pathway in MEF (Tsc2-/-, p53-/-) Cells: Sytravon; further: nearly all actives have a fitted effect of over 50% in size
Details: phospho-rpS6 immunofluorescence/PI, 24 h; series mostly up to 38.3 µM; activity change, negative = inhibition: at the top concentration
From the text: NIH Molecular Libraries Probe Production Centers Network [MLPCN] NIH Chemical Genomics Center [NCGC] MLPCN Grant: NS059428-01 Assay Submitter (PI): Blenis, John; Hoffman, Greg; Harvard University NCGC Assay Overview: The mammalian target of rapamycin (mTOR) is an intracellular serine/threonine kinase Aberrant regulation of mTOR signaling plays a causative role in a number of human diseases, including cancer, benign tumors such as lymphangioleiomyomatosis (LAM) and Tuberous Sclerosis Complex (TSC), and metabolic diseases such as diabetes and obesity. This project aims to identify inhibitors of ribosomal protein S6 (rpS6) phosphorylation. The phosphorylation of rpS6 is a key event downstream of mTOR activation. The assay uses a phospho-specific antibody of phospho-rpS6 to detect inhibitors of mTOR activation. Mutations in the Tsc1 and Tsc2 genes are the underlying genetic lesions responsible for TSC, causing constitutive activation of the mTORC1 pathway and leading to profound effects on cell metabolism. Aberrant metabolism in cancer has recently received significant attention as a target to develop therapeutic agents in the treatment of cancer.1 As Tsc2-/- cells have lost the ability to respond to energy and growth factor deprivation, these cells are unable to properly down regulate cellular biosynthetic processes in response to metabolic stress, and are thus extremely sensitive to glucose deprivation-induced death.2 A central goal of this project is to explore the unique cell survival and metabolic properties of cells with Tsc1 or Tsc2 by screening for compounds that selectively target the Tsc2-/- MEFs by screening both Tsc2-/- and WT MEF cell lines. We hope to better understand these aspects of TSC physiology in order to exploit them for therapeutic benefit.
NCGC Acumen Assay Protocol Summary: For quantitative high throughput analysis of mTORC1 signaling, we developed a cell-based assay for immuno-fluorescence based detection of rpS6 phosphorylation on the Acumen Explorer that will be used a platform for the primary small molecule screen. Mouse embryonic fibroblasts (MEFs) are cultured in 1536-well plates using DMEM + 10% FBS. Twenty-four hrs after plating, test compounds (solubilized in DMSO) are delivered and incubated with the cells for 24 hrs at 37 degree Celsius. Following the incubation, media with compound is aspirated and the cells are fixed in 4% paraformaldehyde (PFA) containing PBS + 0.2% TX-100. Next, PFA is aspirated, cells are washed two times with PBS plus 0.2% TX-100 and the cells are blocked for 1 hr at room temperature (blocking buffer: LiCOR Blocking Buffer plus 0.2% TX-100). […] Cells are washed two times with PBS plus 0.2% TX-100, and stained with 10 uM propidium iodide (PI) for 20-25 minutes for cell number measurement (1:500 dilution of Hoescht staining is also added for IN Cell imaging). The plates are scanned on the Acumen Explorer laser scanning instrument (TTP Labtech) using the 488nm laser for simultaneous excitation of the Alexa-488 and PI. […] The normalized phospho-S6 staining is calculated as the ratio of the integrated Alexa 488 intensity divided by the integrated PI intensity for the single concentration rapamycin control (7.5 nM) and DMSO columns. […] Inhibition of the pathway is defined based on the normalized phospho-S6 intensity in rapamycin treated cells. Active cells are defined as those with a normalized phospho-S6 staining above this threshold, and each treatment is reported as the % positive cells in the well, where thresholds are defined by selecting wells with the highest and lowest signal and differentiating between the % non-active and % active populations. In addition to the pathway specific phospho-S6 endpoint, the number of PI stained cells from the Acumen is recorded as a measure of cell viability. The primary screen was performed with a MEF cell line in a defined genetic background, Tsc2-/-, p53-/- cell line stably transfected with an empty vector control (Tsc2-/- MEF).

Activity change, negative = inhibition, inactive:
CCOc1ccc(Nc2c(S(=O)(=O)c3ccc(C)cc3)cnc3ccc(OC)cc23)cc1 -7.58%
COc1cc(C(=O)N2CCC(c3ccncc3)CC2)cc(OC)c1OC -4.26%
COc1ccc(Cn2c(C(=O)O)c(CNC3CCC(C)CC3)c3ccc(C)cc32)cc1 (stereo not given) 1.94%
COc1cccc(CNC(=O)c2cc(-c3cccs3)nc3ccccc23)c1 -0.175%
COCCCNC(=O)CSc1nc2nc(C)c(Cc3ccccc3Cl)c(C)n2n1 -15.9%
CC(=O)N1CCCc2cc(S(=O)(=O)NCc3ccc(N(C)C)cc3)ccc21 -9.83%
COc1cccc(C(=O)Nc2ccc3nc(SCc4ccc(C)cc4)sc3c2)c1 -29.5%
Cn1nc(-c2ccccc2)c(-c2ccccc2)c(C(=O)Nc2ccc(S(N)(=O)=O)cc2)c1=O 1.74%
Cc1cccc(-n2c(SCC(=O)Nc3ccccc3Cl)nc3n[nH]c(C)c3c2=N)c1 4.15%
CCOc1ccc(NC(=O)CN2C(=O)CCSc3ccc(S(=O)(=O)N4CCCC4)cc32)cc1 -1.54%
O=C(NCC(c1cccnc1)N1CCOCC1)C(=O)Nc1cccc(Cl)c1 (stereo not given) 0.756%
CSc1ccc(CCNC(=O)c2sc3ncccc3c2-n2cccc2)cc1 -2.7%
Cc1ccc(C)c(N2CCN(C(=O)C(C)n3nc(C)c4sc5ccccc5c4c3=O)CC2)c1 (stereo not given) 1.85%
COc1cccc(-n2cc(C(=O)NCCc3cccc(C)c3)c3ccccc3c2=O)c1 5.3%
COC(=O)c1ccc(NC(=O)N2CCc3c([nH]c4ccccc34)C2c2ccc(C)cc2)cc1 (stereo not given) -9.78%
O=C(NCc1ccccc1Cl)C(=O)NCC(c1ccco1)S(=O)(=O)c1cccs1 (stereo not given) -0.661%
COc1ccccc1CNC(=O)C1CCN(c2nn3c(=O)cc(C)nc3s2)CC1 0.0309%
CCC1CCCCN1CCCNC(=O)c1cc2c(Cl)nc3ccc(C)cc3c2s1 (stereo not given) -12.1%
Cc1c2cnn(CC(=O)NCCc3ccccc3)c(=O)c2c(C)n1Cc1ccccc1Cl -0.53%
COc1ccc(Cn2c(=O)c3oc4ccccc4c3n(CC(=O)Nc3cc(C)cc(C)c3)c2=O)cc1 -2.97%
CCOc1ccc(NC(=O)CSc2nc3nc(C)c(Cc4ccccc4)c(C)n3n2)cc1 10.2%
COc1cc(C(=O)NCC(c2ccc(N(C)C)cc2)N2CCCC2)cc(OC)c1OC (stereo not given) 0%
COc1ccc(/C=C(\C#N)c2nc(-c3ccc(Cl)c(Cl)c3)cs2)cc1OC -5.63%
CCc1ccc(NC(=O)CSc2nc(=O)n(Cc3cccnc3)c3c2CCC3)cc1 -1.05%
CC(=O)c1ccc(NC(=O)CN2C(=O)c3cccnc3Sc3ccccc32)cc1 -10%
O=C(COc1ccccc1F)NC1CC(=O)N(c2ccc3c(c2)OCCO3)C1 (stereo not given) 0.415%
Cc1ccc(-c2nc3ccc(Br)cn3c2Nc2ccc3c(c2)OCO3)o1 0.126%
CCc1ccccc1NC(=O)CSc1nc2c(oc3ccccc32)c(=O)n1-c1ccccc1 -3.14%
COc1ccccc1Cn1c(CNS(=O)(=O)c2ccc(Cl)s2)nc2cccnc21 -12.9%
CCOc1ccccc1CNS(=O)(=O)c1cnc(N)nc1 -2.45%
CCOC(=O)c1cccc(NC(=O)Cc2ccc(NC(=O)N3CCCCc4ccccc43)cc2)c1 1.62%
COc1ccc(-n2c(CCC(=O)O)ccc2-c2ccccc2)cc1 0.434%
CC(=O)c1cccc(NC(=O)Cn2cnc3c2c(=O)n(C)c(=O)n3C)c1 -16.7%
CCOC(=O)c1c(C)[nH]c(C)c1S(=O)(=O)N1CCCC(C(=O)N2CCN(c3ccc(Cl)cc3)CC2)C1 (stereo not given) 0%
CCOC(=O)c1[nH]c(C)c(CCC(=O)N2CCN(c3cc(Cl)ccc3C)CC2)c1C -8.11%
Cc1nnc(N2CCN(c3ccccc3)CC2)c2c1nnn2Cc1ccc(F)cc1 -1.73%
O=C(Nc1ccccc1C(=O)OCc1cc(=O)n2c3c(sc2n1)CCCC3)c1ccc(Cl)cc1 0%
Cc1ccc(C)c(NC(=O)CCn2cnnn2)c1 -2.25%
O=C1Nc2c(c(=O)[nH]c(=O)n2-c2ccc(Cl)cc2)C1(NS(=O)(=O)c1ccccc1)C(F)(F)F (stereo not given) -2.13%
CCOC(=O)c1ccc(N2CCN(c3cccc(Cl)c3)CC2)c(NC(=O)Nc2ccc(Cl)cc2)c1 10.3%
O=C(Nc1ccc(F)cc1F)c1ccc(-c2ccccc2)s1 -3.95%
Cc1ccc2nc(CSc3nnc(NC(=O)COc4ccccc4F)s3)cc(=O)n2c1 0.179%
Nc1c(C(=O)c2ccc3c(c2)OCO3)sc(Nc2ccccc2F)c1S(=O)(=O)c1ccccc1 -9.75%
COc1ccc(C)cc1N(CC(=O)N1CCC(C)CC1)S(=O)(=O)c1ccc(C)cc1 2.44%
COc1ccc(C2CC(=O)c3cc(-c4nc(-c5cccc([N+](=O)[O-])c5)cs4)c(=O)n(-c4cc(C)cc(C)c4)c3C2)cc1 (stereo not given) -9.67%
CCOC(=O)CSc1nc2sc3c(c2c(=O)n1CC)CCCC3 -5.94%
Cn1c(=O)c2c(-c3ccccc3Br)n(C(C)(C)C)cc2n(C)c1=O -6.75%
O=C(CCCn1c(=O)c2sccc2n(Cc2c(F)cccc2Cl)c1=O)NCc1ccccc1 -1.09%
CCCC(=O)Nc1ccc2nn(-c3ccc(CC)cc3)nc2c1 -20.7%
Cc1cnc2c(c1SCC(=O)N(C)c1ccccc1)c(=O)n(C)c(=O)n2C -0.107%
Cc1ccc(N2CCN(Cc3nnc(-c4ccc5c(c4)OCO5)o3)CC2)c(C)c1 -1.39%
Cc1cc(C)cc(NC(=O)CSCc2cc(=O)c3cc(Cl)ccc3[nH]2)c1 -6.05%
Cc1cccc(NC(=O)Cn2nc(C)c3nn(-c4ccc(Cl)cc4)c(C)c3c2=O)c1C -6.1%
COc1ccccc1N1CCN(C(=O)c2ccc3c(c2)N(Cc2ccccc2)C(=O)c2ccccc2S3(=O)=O)CC1 0.753%
CC1(C)CC(=O)c2cc(-c3nc(-c4ccc(Br)cc4)cs3)c(=O)n(-c3ccccc3)c2C1 -13.5%
O=C(c1cnc(N2CCOCC2)c2ccccc12)N1CCN(c2ccc(F)cc2)CC1 0.4%
Cc1c(-c2nc(-c3ccc4c(c3)[nH]c(=O)n4C)no2)cccc1[N+](=O)[O-] -0.976%
Cc1cccc(-c2noc(CN(C(C)C)S(=O)(=O)c3ccc(Br)cc3)n2)c1 3.97%
O=C1c2ccccc2-c2onc3c(Br)cc(NC4CCCCC4)c1c23 3.9%
O=C(CSc1nnc(-c2cccs2)o1)Nc1cccc(C(F)(F)F)c1 1.42%
Cc1cccc(N2C(=O)CSC23C(=O)N(CC(=O)NCCc2ccccc2)c2ccccc23)c1 (stereo not given) -9.31%
COCCNC(=O)CSc1nc2cc3c(cc2c(=O)n1CCCCCC(=O)NCCc1ccc(OC)c(OC)c1)OCO3 0.312%
COc1ccc(-c2cc(C(F)(F)F)n3nc(-c4ccc(Cl)cc4)cc3n2)cc1OC -1.78%
O=C(Cc1ccccc1)NC1CC(=O)N(c2ccc3c(c2)OCCO3)C1 (stereo not given) 0.848%
Cc1c(CC(=O)N2CCCCC2)c(=O)oc2c(C)c(O)ccc12 2.9%
Cc1cc2c(cc1S(=O)(=O)CCC(=O)NCc1ccccc1)OCC(=O)N2 5.08%
O=C(OCc1ccccc1F)c1ccc(-c2nnn(Cc3ccccc3)n2)cc1 -5.72%
CCN(CC)c1ccc(NC(=O)C(NS(=O)(=O)c2cccs2)C(C)C)c(C)c1 (stereo not given) -16.9%
CN(C(=O)c1cnc(N2CCOCC2)c2ccccc12)c1ccccc1F -0.582%
COc1ccc(-n2nnnc2C2CCN(S(=O)(=O)c3cccc(Cl)c3C)CC2)cc1 -7.72%
COC(=O)c1ccc2c(c1)N(CC(=O)Nc1ccc(C)c(C)c1)C(=O)c1ccccc1S2 3.42%
CCS(=O)(=O)N1CCc2cc(C(=O)Nc3cc(C)cc(C)c3)ccc21 -0.332%
Cc1ccc(C)c(N2CCN(C(=O)NCc3noc4ccccc34)CC2)c1 -8.08%
Cc1cc2oc(C(=O)Nc3sc4c(c3C(=O)NCC3CCCO3)CCCC4)cc(=O)c2cc1C (stereo not given) 0.329%
Cc1ccc2nc(Nc3cccc(C(F)(F)F)c3)c3nnnn3c2c1 -1.31%
Cn1c(=O)c2c(-c3ccc(Cl)cc3)ccnc2n(C)c1=O -10.2%
O=S(=O)(NCC(c1ccco1)N1CCN(c2ccc(F)cc2)CC1)c1cc(F)ccc1F (stereo not given) -3.49%
COc1ccc(CCNC(=O)c2ccc3[nH]c(C)c(C)c3c2)cc1OC -4.86%
CCc1c(C)sc(NC(=O)c2cc(-c3ccc(OC)c(OC)c3)on2)c1C#N -1.57%
COc1ccc(OC)c(CCNc2nc3cc(OC)c(OC)cc3c3nc(-c4cccnc4)nn23)c1 -1.13%
CCCCN(CC)CCNC(=O)CN1C(=O)COc2ccc(S(=O)(=O)N3CCOCC3)cc21 -7.29%
CCOc1ccccc1CNC(=O)CN1C(=O)c2cccnc2Oc2ccc(Cl)cc21 -3.69%
COc1ccc(S(=O)(=O)N2CCCCC2)cc1C(=O)NC1CCS(=O)(=O)C1 (stereo not given) -1.85%
Cc1ccc(C(=O)c2cn(Cc3ccccc3)c3c(F)cc(F)cc3c2=O)cc1 -15.6%
O=C(Nc1ccccc1)c1ccc(Cl)c(S(=O)(=O)Nc2ccccc2)c1 -3.27%
CCS(=O)(=O)N1CCC2(CC1)OC(=O)C(C)=C2C(=O)NCc1ccc(OC)c(OC)c1 -3.51%
COc1ccc(N2CCN(C(=O)c3cn(C)c4ccc(S(=O)(=O)N5CCOCC5)cc4c3=O)CC2)cc1 1.17%
CCC1Oc2ccccc2N(CC(=O)NCc2ccccc2)C1=O (stereo not given) 12.7%
Cc1cc(Nc2cccc(Cl)c2)nc2ccc(NC(=O)Cc3c(F)cccc3Cl)cc12 -11.7%
Cn1c(=O)c(=O)n(C)c2cc(N3CCCC3)c(NC(=O)c3ccccc3Cl)cc21 0.814%
COc1ccc2nc(N(Cc3cccnc3)C(=O)c3ccc(Cl)cc3)sc2c1 -6.4%
CCn1c(=O)c2sccc2n2c(CCCC(=O)Nc3ccc(Oc4ccccc4)cc3)nnc12 -1.72%
CCOc1ccccc1CNC(=O)CN1C(=O)c2cccnc2Oc2ccc(C)cc21 -3.59%
COc1ccc(-c2noc(CC(=O)N(C)c3cc(Cl)c(OC)cc3OC)n2)cc1 -3.92%
CCCCN(C)C(=O)c1ccc2c(c1)NC(=O)C(CC(C)C)N2 (stereo not given) 11.1%
